Laboratory results published in the supplement of paper PMC3334620.
Over roughly 33,000 sequences, “E-score (-0.5 to 0.5)” has its median near -0.016; the highest 2% begin near 0.31. The list shows a part of the results.

What follows are sequences tested against Cst6 (UniProt P40535) (assay: PBM E-score (8-mer binding enrichment) (E-score (-0.5 to 0.5)); higher = stronger / more preferred TF binding; most listed sequences are background and not binding sites). Conditions: protein concentration: 200 nM; construct: GST-DNA-binding domain.
Experimental: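 Universal 'all 10-mer' protein binding microarrays (Agilent AMADID 015681) probed with GST-tagged S. cerevisiae TFs (full-length or DBD) made by in vitro transcription/translation (PURExpress), about 100-200 nM. Bound TF was detected with fluorescent anti-GST. Each ungapped 8-mer (which stands for itself and its reverse complement) is scored by the PBM enrichment score (E-score), a modified Wilcoxon-Mann-Whitney statistic from -0.5 to +0.5, computed with the Universal PBM Analysis Suite. Scale: above 0.35 generally sequence-specific binding.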

Point of comparison: CCTACACA, “PBM E-score” value -0.0404. Against it:
- GGGTACCA — lower, -0.276
- ATCGCCTA — lower, -0.115
- ACAGAGTA — higher, 0.0647
- GAGAAATA — higher, 0.0985
- AATAAGGC — higher, 0.175
- ATCCAGAA — higher, 0.108
- GGACCTCC — lower, -0.265
- ATTCTCCC — lower, -0.0452
- CAGTCTGA — lower, -0.0415
- CGGTCGAA — lower, -0.156
- GCATTAGC — lower, -0.0756
- AAATCGTT — higher, 0.131
- CCCTGCCA — lower, -0.122
- CCAGGCAG — lower, -0.206
- ACAAATAG — higher, 0.214
- CACCCCAA — higher, 0.0178
- CCCGTTTA — lower, -0.0448
- ACGTTTTA — higher, 0.213
- GACTATAC — lower, -0.0569
- TACCTTAA — higher, -0.0137
- CAGTCAGA — lower, -0.099
- CCGGGGGC — lower, -0.359
- ACAGAGCT — lower, -0.198
- CCGTATAA — higher, 0.225
- AAGTAGGT — lower, -0.122
- GTGTAAAA — higher, 0.165
- CTCCTATC — lower, -0.222
- ATGCGGGA — higher, 0.123
- ATTTTAAA — higher, 0.308
- GGTCTATA — lower, -0.102
- GTTGGGCA — lower, -0.0664
- CTTGCCAC — higher, 0.0533
- AGTGCTTA — lower, -0.0836
- AGTGGGCC — lower, -0.327
- GGTATTGA — lower, -0.137
- GCCTTTAC — higher, 0.0676
- AATACACT — higher, 0.192
- ACAATACG — higher, 0.138
- CGACTTCA — lower, -0.0782
- ACACACTG — lower, -0.0897
- ACCATCGC — higher, 0.119
- ACTTTTGA — higher, 0.224
- GGAGAGTA — lower, -0.246
- TCTTAGAA — higher, 0.214
- CACTTATA — higher, 0.183
- ACTGCAAG — lower, -0.111
- CTGCCAGC — lower, -0.127
- CCAGAGTA — lower, -0.113
- CCGAGGAA — lower, -0.104
- ACGTGTCT — higher, 0.15
- AATCCACT — higher, 0.0752
- GCCTCGCA — higher, 0.189
- CATGTAAG — higher, 0.151
- CTAAGGCC — lower, -0.168
- CACAAGTA — lower, -0.149
- AACCGCTC — higher, -0.0305
- AGAGATCG — lower, -0.0567
- AGAAGCAA — higher, 0.172
- AGGATTGG — higher, -0.0299
- CCCAACCG — lower, -0.157
- TCAGCTGA — higher, 0.152
- ACTTTGCG — higher, 0.0878
- ATGAGCAG — higher, -0.0198
- ACCATCCG — lower, -0.0928
- ATGCCGGG — lower, -0.0788
- ACCCATCG — lower, -0.0974
- AATTATAC — higher, 0.152
- AAAAGAGA — higher, 0.0374
- ACGGTAGA — lower, -0.177
- AGACAACG — higher, -0.029
- CGGATGAG — lower, -0.135
- AAAGTGCC — lower, -0.104
- CATTGTTC — lower, -0.0577
- GCTATTGA — higher, 0.108
- AATAGCCG — higher, 0.0808
- ACTTCATA — higher, 0.212
- ACAGTGCA — higher, -0.0278
- CACGGATA — higher, 0.184
- ACACATAT — higher, 0.21
- CACTAAGG — lower, -0.139
- CTGAGGTA — higher, 0.0121
- CAATGACC — higher, 0.148
- GCGTGATA — higher, 0.038
- GCGTGTTA — lower, -0.0673
- CCACTTTA — higher, 0.034
- AAACCGAA — higher, -0.00079
- CCAAATTA — higher, 0.236
- CCCTAACG — lower, -0.067
- GTTGCTTA — higher, 0.141
- AACTTTGC — lower, -0.0842
- CGAGTTTA — lower, -0.0493
- AACATCCG — higher, -0.00024
- GTAACCGA — higher, 0.107
- ATGAAGTG — higher, 0.121
- CTGAGAGA — higher, -0.0178
- ATCAGTGC — higher, 0.128
- AAAAGCGT — higher, 0.0324
- AAGCTATC — higher, 0.112
- ATGTACGA — higher, -0.0138
- CAGGAACG — lower, -0.156
- GTAATTCA — higher, 0.208
- GCCATGAC — higher, 0.284
- CGACAGGC — lower, -0.271
- ACGGGTAG — lower, -0.0628
- ACCTCCAG — lower, -0.19
- ATTTGCCA — lower, -0.102
- AGATAACT — higher, 0.0121
- GCGGATCA — higher, 0.0437
